According to the supplement of paper PMC3334620:
In all, about 33,000 sequences were measured (“E-score (-0.5 to 0.5)”: median about -0.016, highest 2% from about 0.31 on). The list shows a part of the results.

molecular target: Cst6 (UniProt P40535); test: PBM E-score (8-mer binding enrichment) (E-score (-0.5 to 0.5)); higher = stronger / more preferred TF binding; most listed sequences are background and not binding sites; conditions: protein concentration: 200 nM; construct: GST-DNA-binding domain
In short: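 Full-length yeast transcription factors or their DNA-binding domains, GST-tagged and expressed with PURExpress, were applied at about 100-200 nM to universal all-10-mer Agilent arrays. These arrays had been made double-stranded by primer extension on fresh or once-stripped slides. Detection used fluorescent anti-GST, normalisation used masliner, and E-scores for ungapped eight-base words pooled with reverse complements came from the Universal PBM Analysis Suite.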

Row | Sequence | PBM E-score
1 | AAACCCAT | 0.155
2 | CACTAAGC | 0.0171
3 | AGCTTGAT | -0.0451
4 | ATAGCAAG | 0.111
5 | GCGTCAAC | 0.335
6 | CTTAAGAC | -0.0871
7 | CCGCGTAA | 0.111
8 | ATGCGCTA | -0.046
9 | TAGTCAAA | 0.189
10 | CATTGAGC | -0.0513
11 | CGATCTTA | 0.0184
12 | CGAAGAGC | -0.132
13 | ACGGTCCT | -0.274
14 | TTACGGAA | 0.178
15 | CGCGCGAG | 0.0316
16 | AGAACAAA | 0.34
17 | CAGCTAGC | -0.104
18 | AAAGTGGG | 0.0266
19 | AATTATAT | 0.188
20 | AATGGACT | -0.156
21 | CTGACTGA | -0.149
22 | TTTAGAAA | 0.189

Row | Sequence | PBM E-score
23 | CGATCTCC | -0.127
24 | CGGTTTAC | -0.0976
25 | AGTCCTGA | -0.0814
26 | GCTCTATA | -0.114
27 | ACACCAGA | 0.115
28 | AAACGTTA | 0.0758
29 | CCAAGGGC | -0.271
30 | CGGAACCG | -0.127
31 | CGTAACCA | 0.24
32 | CCTTCCCC | -0.132
33 | CGCATGTC | 0.215
34 | GATACATA | 0.117
35 | CACGAGAG | -0.144
36 | AATGGGAT | -0.17
37 | GACCTGAA | -0.127
38 | CTAATCTC | 0.0468
39 | TCAGCTAA | 0.0376
40 | AATGGGAG | -0.0589
41 | ACGTTGTG | 0.0103
42 | CGGCGACA | 0.0179
43 | GAGAAATC | 0.0872
44 | ACGTCTCC | 0.0103

Row | Sequence | PBM E-score
45 | GACTCCGA | -0.105
46 | CCAAACGC | -0.0355
47 | TGGGTAAA | -0.164
48 | TAAAAACA | 0.231
49 | GCACAGCC | -0.125
50 | ACCCGATG | -0.0718
51 | GCCGACAA | -0.0103
52 | ATCTTTGA | 0.0793
53 | CTTCAGCA | -0.0118
54 | AAGACTAG | -0.266
55 | GTCTTGAA | -0.0497
56 | AAGCCCGT | -0.275
57 | GATCATGC | -0.137
58 | CTAGGGTA | -0.316
59 | ACCTCGAC | -0.0173
60 | GTTCCAAA | 0.0735
61 | AATAGCAG | -0.162
62 | AATCGGTG | 0.00732
63 | ATTCTATC | 0.198
64 | AGGACACC | -0.0829
65 | GGCATATA | 0.184
66 | ACCGCTGA | 0.0445

Row | Sequence | PBM E-score
67 | AATAAACA | 0.208
68 | AGGTGGGA | -0.228
69 | AGCCCACC | -0.257
70 | GGGAAAAA | 0.0634
71 | ACATTGAT | 0.181
72 | AGTTGCCC | -0.202
73 | AAGGCAAG | -0.00658
74 | AGGAAGTC | -0.206
75 | AAGTCAGT | 0.0407
76 | AGTAATGA | 0.247
77 | CGCGCCTC | 0.0846
78 | GCCCGACC | -0.276
79 | AGTAGATA | 0.233
80 | CGAGGAGA | -0.295
81 | ACAGCGCG | -0.0283
82 | ATCTGTGC | 0.053
83 | CGGATTCC | -0.15
84 | AGGTAACC | -0.0846
85 | ACACCAAA | 0.212
86 | GCTGGAAC | -0.184
